{"source": "patent US5786324A", "about": "“Synthetic peptides with bactericidal activity and endotoxin neutralizing activity for gram negative bacteria and methods for their use” (priority 1994, dated 1998)", "key": {"[1]": {"tested_on": "Pseudomonas aeruginosa type 1", "type": "cell-based", "conditions": "for Effective Dose Bactericidal pH 5.6 P. aeruginosa Molar Concentration: Table 5", "protocol": "Bactericidal activity can be evaluated against a variety of bacteria such as Pseudomonas spp including aeruginosa and P. cepacia, E. coli B, and Staphylococcus aureus. The preferred organism is P. aeruginosa. Bactericidal activity is determined by identifying the effective dose for killing as the molar concentration of the peptide which results in at least a 60% killing of the bacteria, as determined by standard methods. Preferably, the peptide has an effective dose at a concentration of about 1×10^-4 M to about 1×10^-10 M, and more preferably 1×10^-7 M to 1×10^-9M . […] The effective dose for bactericidal activity of B/PI is seen at about […] . Bactericidal activity can also be determined by calculating a lethal dose 50 (LD50) using standard methods. The LD50 is that amount of peptide or protein that kills 50% of the bacteria when measured using standard dose response methods. A bactericidal peptide preferably has an LD50 of about 10^-4 M to about 10^-9 M , more preferably about 10^-7 to 10^-9 M .\n(§1) The synthetically produced peptides were assayed for bactericidal activity against Pseudomonas aeruginosa, type 1, P. cepacia ATCC 25608, E. coli B, and Staphylococcus aureus 502A by standard methods.\n(§2) Pseudomonas aeruginosa type 1 is a clinical isolate maintained in the laboratory since 1972. The isolate remains a smooth strain and was serotyped by the scheme of Homma. Homma, Jpn. J. Exp. Med., 46:329 (1976). A rough strain E. coli B and S. aureus 502A were obtained from Paul Quie, University of Minnesota. The characteristics of the S. aureus strain have been described in Shinefield et al., Amer. J. Dis. Chil., 105:646 (1963). Pseudomonas cepacia ATCC 25608 was purchased from the American Type Culture Collection in 1980. S. aureus and E. coli were maintained on nutrient agar plates and the Pseudomonas strains were maintained on blood agar plates.\n(§3) Pyrogen-free solutions were used throughout this assay and all methods which follow. Log phase bacteria were prepared from a culture in brain heart infusion broth as previously described except that bacteria were washed and resuspended in saline with adjustment to an optical density at 650 nm which would yield 3×10^8 CFU/ml. Bacteria were then diluted 1:10 in 0.08M citrate phosphate buffer, pH 5.6 or pH 7.0, for use in the assay. S. aureus rapidly lost viability in the pH 5.6 buffer and was studied only at pH 7.0. Bactericidal activity was determined by dose response and where an LD50 is indicated, it was determined by linear regression."}, "[2]": {"tested_on": "Staphylococcus aureus 502A", "type": "cell-based", "conditions": "S. aureus; for % Killing of 5 × 10^6 Bacteria: pH 7.0", "protocol": "as §1, §2, §3"}}, "note": "Values joined by “and” are separate entries in the source; they are usually repeats but may differ in a detail not shown here. Equal values may be shown once. Read-outs that look alike come from different tables or passages of the source. At least one peptide structure holds a part that was inferred or is arguable (an end, a ring closure or a residue). Some entries repeat one wording, which the source may state once for all of them. No end group written: not given here.", "data": [{"molecule": "CC(C)C[C@H](NC(=O)[C@H](Cc1ccccc1)NC(=O)[C@H](CCCNC(=N)N)NC(=O)[C@H](CCCCN)NC(=O)[C@H](CCC(N)=O)NC(=O)[C@H](C)NC(=O)[C@H](CCCCN)NC(=O)[C@H](Cc1c[nH]c2ccccc12)NC(=O)[C@H](CCCCN)NC(=O)[C@@H](N)CS)C(=O)N[C@@H](CCCCN)C(=O)O", "note": "[Peptide 2, ckwkaqkrflk]", "values": [{"measurement": "% Killing of 5 × 10^6 Bacteria", "setting": "[1]; P. aeruginosa, pH 5.6, 1.5 × 10^-6 M", "result": 83, "unit": "%"}, {"measurement": "% Killing of 5 × 10^6 Bacteria", "setting": "[1]; P. aeruginosa, pH 5.6, 1.5 × 10^-6 M, listed as C#90-99", "result": "83 ± 13% and 83%"}, {"measurement": "% Killing of 5 × 10^6 Bacteria", "setting": "[1]; P. aeruginosa, pH 7.0, 1.5 × 10^-6 M", "result": "83 ± 15", "unit": "%"}, {"measurement": "Effective Dose Bactericidal pH 5.6 P. aeruginosa Molar Concentration", "setting": "[1]; pH 5.6", "result": "1.5 × 10^-6 M"}, {"measurement": "% Killing of 5 × 10^6 Bacteria", "setting": "[2]; 1.5 × 10^-6 M", "result": 0, "unit": "%"}]}, {"molecule": "KKIESALRNKM [Peptide 7a, kkiesalrnkm]", "values": [{"measurement": "bactericidal activity (in words)", "setting": "[1]; P. aeruginosa, 1.2×10^-4 M, data not shown", "result": "not bactericidal"}, {"measurement": "Effective Dose Bactericidal pH 5.6 P. aeruginosa Molar Concentration", "setting": "[1]; pH 5.6", "result": "-- (not active at concentrations of 1.2 × 10^-4 M or less)"}, {"measurement": "bactericidal activity (in words)", "setting": "[2]; 1.2×10^-4 M, data not shown", "result": "not bactericidal"}]}, {"molecule": "CNEKLQKGFPL [Peptide 4, cneklqkgfpl]", "values": [{"measurement": "% Killing of 5 × 10^6 Bacteria", "setting": "[1]; P. aeruginosa, pH 5.6, 1.2 × 10^-4 M", "result": 0, "unit": "%"}, {"measurement": "% Killing of 5 × 10^6 Bacteria", "setting": "[1]; P. aeruginosa, pH 7.0, 1.2 × 10^-4 M", "result": 0, "unit": "%"}, {"measurement": "Effective Dose Bactericidal pH 5.6 P. aeruginosa Molar Concentration", "setting": "[1]; pH 5.6", "result": "-- (not active at concentrations of 1.2 × 10^-4 M or less)"}, {"measurement": "% Killing of 5 × 10^6 Bacteria", "setting": "[2]; 1.2 × 10^-4 M", "result": 0, "unit": "%"}]}]}
